Data from the supplement of paper PMC12217912.
Some of the results follow. Sequences were assembled here from the parent chain. Values near 0.05 are background.

B1: TEV protease; numbered along this chain (parent)
chain: MGESLFKGPRDYNPISSSICHLTNESDGHTTSLYGIGFGPFIITNKHLFRRNNGTLVVQSLHGVFKVKDTTTLQQHLVDGRDMIIIRMPKDFPPFPQKLKFREPQREERICLVTTNFQTKSMSSMVSDTSCTFPSGDGIFWKHWIQTKDGQCGSPLVSTRDGFIVGIHSASNFTNTNNYFTSVPKNFMELLTNQEAQQWVSGWRLNADSVLWGGHKVFMVKPEEPFQPVKEATQL

Variants of: B1
Assay: raw area under fraction-flipped curve 0-4 h after induction (AUC4h, not background-subtracted), DNA-recorder readout of cleavage of the substrate (dimensionless); higher = more cleavage of the substrate by the protease variant
Conditions: temperature: 34 °C; time window: 0-4 h after rhamnose induction
Method: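 In vivo DNA recorder in E. coli TOP10(DE3) ΔrhaA at 34 °C. Each TEVp single-site mutant (parent TEVp 0) is paired with a single-site variant of the 7-mer TEVs (canonical ENLYFQ|S). The substrate sits between flexible linkers in a Bxb1-sfGFP-TEVs-SsrA fusion, so cleavage stabilises Bxb1 and speeds flipping of a recombination array, read by NGS. The value is the raw area under the fraction-flipped curve over 0-4 h after rhamnose induction (AUC4h), with ≥20 reads per time point. It is not background-subtracted; inactive controls average about 0.047.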
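Note: Bxb1 expression induced with 0.2% (w/v) L-rhamnose at OD600 near 0.5, cultures sampled hourly, flipped fraction per protease–substrate barcode pair counted by paired-end Illumina sequencing.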

Variant | area with substrate EALYFQS | area with substrate ECLYFQS | area with substrate EDLYFQS | area with substrate EELYFQS | area with substrate EFLYFQS | area with substrate EGLYFQS | area with substrate EHLYFQS | area with substrate EILYFQS | area with substrate EKLYFQS | area with substrate ELLYFQS | area with substrate EMLYFQS | area with substrate EPLYFQS | area with substrate ERLYFQS | area with substrate ESLYFQS | area with substrate ETLYFQS | area with substrate EVLYFQS | area with substrate EWLYFQS | area with substrate EQLYFQS | area with substrate EYLYFQS
H21I | 0.0985 | 0.0999 | 0.104 | 0.0902 | 0.0863 | 0.0742 | 0.113 | 0.0795 | 0.123 | 0.0719 | 0.0998 | 0.113 | 0.093 | 0.0875 | 0.0919 | 0.0803 | 0.0739 | – | –
I42S | 0.0537 | 0.0469 | 0.0414 | 0.0399 | 0.049 | 0.0364 | 0.0598 | 0.0531 | 0.0427 | 0.0487 | – | 0.0563 | 0.0469 | 0.0491 | 0.0515 | 0.0442 | 0.0449 | 0.041 | –
T55V | 0.116 | 0.106 | 0.103 | 0.115 | – | 0.096 | 0.132 | 0.0799 | 0.106 | 0.122 | – | – | 0.0846 | 0.107 | – | 0.0932 | – | 0.111 | –
L48P | 0.0575 | 0.0575 | – | 0.0669 | – | 0.0465 | 0.0612 | 0.0515 | 0.0708 | – | – | – | 0.0643 | 0.0593 | 0.0502 | – | 0.0665 | 0.041 | 0.0769
L48T | 0.101 | 0.0734 | – | 0.0871 | 0.0842 | – | 0.0764 | 0.0792 | 0.0546 | 0.0729 | – | 0.0574 | 0.0747 | 0.0726 | – | 0.0706 | – | 0.0765 | 0.0656
S18N | 0.11 | 0.129 | 0.124 | 0.137 | 0.083 | 0.0671 | – | 0.0756 | 0.0924 | 0.103 | 0.0722 | – | – | 0.102 | 0.115 | 0.0954 | 0.0774 | 0.11 | –
S18T | 0.0989 | – | 0.0965 | 0.147 | – | – | – | 0.0605 | 0.134 | 0.0679 | 0.101 | 0.145 | 0.0947 | 0.0971 | – | 0.0839 | 0.112 | 0.136 | –
N52G | 0.0442 | 0.0699 | 0.0954 | 0.0694 | 0.0591 | 0.0613 | 0.0719 | 0.0699 | 0.0631 | – | 0.0743 | 0.0647 | 0.0881 | 0.0813 | 0.0797 | 0.069 | 0.0648 | 0.0705 | –
F38R | 0.0867 | 0.0729 | – | 0.0646 | – | 0.0554 | 0.0681 | 0.0652 | 0.0798 | – | – | 0.0713 | 0.0693 | – | 0.0899 | 0.065 | 0.0614 | 0.0782 | 0.0266
I36P | 0.0438 | 0.0352 | – | 0.0401 | – | 0.0352 | – | 0.032 | – | 0.0463 | 0.0397 | – | – | 0.048 | 0.0521 | 0.0487 | 0.0303 | 0.0403 | –
L56A | 0.165 | 0.088 | – | – | – | – | 0.0861 | – | 0.076 | – | 0.081 | – | – | 0.0762 | 0.0916 | 0.0815 | – | 0.114 | –
L56F | 0.119 | 0.0871 | 0.127 | 0.0599 | – | 0.0847 | 0.0831 | 0.0833 | 0.0917 | – | 0.101 | 0.0878 | 0.0737 | 0.0833 | 0.106 | 0.0764 | 0.0861 | 0.0698 | 0.0873
L56G | 0.0663 | – | 0.0688 | – | – | 0.0515 | 0.0246 | 0.0406 | 0.0493 | 0.0552 | 0.0487 | – | 0.0557 | 0.0577 | 0.0487 | 0.0503 | – | 0.044 | 0.0603
L56H | 0.0397 | 0.0256 | – | 0.0495 | 0.0469 | 0.0419 | – | – | 0.0589 | 0.0451 | – | – | 0.0431 | 0.0528 | – | 0.0498 | – | – | –
E25C | 0.133 | 0.112 | 0.104 | 0.141 | 0.0861 | 0.123 | 0.0994 | 0.0797 | 0.0717 | – | 0.126 | 0.106 | – | 0.106 | 0.0608 | 0.0883 | 0.11 | 0.125 | 0.115
I19G | 0.0855 | 0.0741 | 0.106 | 0.0756 | 0.0831 | 0.0804 | 0.0902 | 0.0721 | 0.0804 | 0.0699 | – | 0.0909 | 0.0278 | 0.0758 | 0.0711 | 0.0751 | 0.0686 | 0.0933 | 0.0587
P40M | 0.0978 | 0.0965 | 0.138 | 0.102 | 0.0843 | – | 0.087 | 0.0905 | 0.0895 | 0.0939 | 0.102 | 0.105 | 0.105 | 0.11 | – | 0.0957 | 0.106 | 0.133 | –
P40W | 0.124 | 0.0505 | 0.142 | – | – | 0.0849 | – | 0.0997 | 0.0918 | 0.0893 | 0.0753 | 0.152 | 0.0931 | 0.104 | 0.114 | 0.096 | 0.105 | 0.119 | 0.102
G37Q | 0.0804 | 0.0875 | 0.0711 | 0.115 | 0.0773 | 0.0699 | 0.0465 | 0.0631 | 0.0732 | 0.0739 | 0.0719 | 0.0927 | 0.0724 | 0.0672 | – | – | 0.0688 | – | –
T23W | 0.116 | 0.108 | 0.104 | 0.0958 | 0.0559 | 0.0971 | 0.115 | 0.0776 | 0.0941 | 0.0854 | 0.115 | 0.106 | 0.0939 | 0.0955 | 0.109 | 0.0928 | 0.0784 | 0.0993 | 0.084
T23G | 0.0887 | 0.0913 | 0.0963 | 0.0666 | 0.063 | 0.0783 | 0.0792 | 0.0761 | 0.0817 | 0.0611 | 0.0797 | 0.0592 | 0.0812 | 0.0738 | 0.0805 | 0.0762 | – | 0.0832 | 0.0766
S17G | 0.145 | 0.114 | 0.13 | 0.0952 | 0.126 | 0.0791 | 0.12 | 0.076 | 0.0945 | – | 0.11 | 0.157 | 0.104 | 0.102 | 0.13 | 0.0926 | 0.0851 | 0.128 | 0.118
S17C | 0.106 | 0.0987 | 0.138 | 0.12 | 0.1 | 0.106 | 0.101 | 0.0921 | 0.107 | 0.13 | 0.0965 | 0.123 | – | 0.106 | 0.118 | 0.0826 | 0.087 | 0.105 | 0.103
